This is one part of the list. Single values are uncertain, as repeats are few or missing.
System: COLO800
Experiment: cell count relative to DMSO control; melanoma cells; higher = more viable cells
Settings: library dose: low library concentration; 72 h
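Note: cell number obtained by counting DAPI-stained nuclei in high-throughput microscope images with image analysis software, screen run in 1,536-well plates.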

Compound	cell count
Cc1cc(Nc2cc(N3CCN(C)CC3)nc(/C=C/c3ccccc3)n2)n[nH]1 + COc1ccc(Cl)c(Nc2nc3ccccc3nc2NS(=O)(=O)c2cccc(NC(=O)C(C)(C)N)c2)c1 [XL147] (first compound 0.04 µM, partner dose 0.8 µM)	95.9%
COc1ccc(C2=N[C@@H](c3ccc(Cl)cc3)[C@@H](c3ccc(Cl)cc3)N2C(=O)N2CCNC(=O)C2)c(OC(C)C)c1 [Nutlin-3] + NC1(c2ccc(-c3nc4ccn5c(=O)[nH]nc5c4cc3-c3ccccc3)cc2)CCC1 [MK2206] (first compound 0.1 µM, partner dose 0.4 µM)	86.9%
CC(C)C[C@H](NC(=O)[C@H](Cc1ccccc1)NC(=O)c1cnccn1)B(O)O [Bortezomib] + CS(=O)(=O)CCNCc1ccc(-c2ccc3ncnc(Nc4ccc(OCc5cccc(F)c5)c(Cl)c4)c3c2)o1 [lapatinib] (first compound 0.001 µM, partner dose 0.8 µM)	83.5%
CC(C)C[C@H](NC(=O)[C@H](Cc1ccccc1)NC(=O)c1cnccn1)B(O)O [Bortezomib] + C[C@]1(c2nc3c(C(N)=O)cccc3[nH]2)CCCN1 [Veliparib] (first compound 0.001 µM, partner dose 1.4 µM)	52.9%
Cc1cc(Nc2cc(N3CCN(C)CC3)nc(/C=C/c3ccccc3)n2)n[nH]1 + COCC[n+]1c2c(n(Cc3cnccn3)c1C)C(=O)c1ccccc1C2=O [YM155] (first compound 0.04 µM, partner dose 0.0004 µM)	94.5%
